Results on one molecule are retold here after paper PMC7452241 (iScience, 2020).

The target in the assay is T1, His6-SHIP1 Y190F (UniProt Q9ES52 1-1191, Y190F).
T1 sequence (looked up): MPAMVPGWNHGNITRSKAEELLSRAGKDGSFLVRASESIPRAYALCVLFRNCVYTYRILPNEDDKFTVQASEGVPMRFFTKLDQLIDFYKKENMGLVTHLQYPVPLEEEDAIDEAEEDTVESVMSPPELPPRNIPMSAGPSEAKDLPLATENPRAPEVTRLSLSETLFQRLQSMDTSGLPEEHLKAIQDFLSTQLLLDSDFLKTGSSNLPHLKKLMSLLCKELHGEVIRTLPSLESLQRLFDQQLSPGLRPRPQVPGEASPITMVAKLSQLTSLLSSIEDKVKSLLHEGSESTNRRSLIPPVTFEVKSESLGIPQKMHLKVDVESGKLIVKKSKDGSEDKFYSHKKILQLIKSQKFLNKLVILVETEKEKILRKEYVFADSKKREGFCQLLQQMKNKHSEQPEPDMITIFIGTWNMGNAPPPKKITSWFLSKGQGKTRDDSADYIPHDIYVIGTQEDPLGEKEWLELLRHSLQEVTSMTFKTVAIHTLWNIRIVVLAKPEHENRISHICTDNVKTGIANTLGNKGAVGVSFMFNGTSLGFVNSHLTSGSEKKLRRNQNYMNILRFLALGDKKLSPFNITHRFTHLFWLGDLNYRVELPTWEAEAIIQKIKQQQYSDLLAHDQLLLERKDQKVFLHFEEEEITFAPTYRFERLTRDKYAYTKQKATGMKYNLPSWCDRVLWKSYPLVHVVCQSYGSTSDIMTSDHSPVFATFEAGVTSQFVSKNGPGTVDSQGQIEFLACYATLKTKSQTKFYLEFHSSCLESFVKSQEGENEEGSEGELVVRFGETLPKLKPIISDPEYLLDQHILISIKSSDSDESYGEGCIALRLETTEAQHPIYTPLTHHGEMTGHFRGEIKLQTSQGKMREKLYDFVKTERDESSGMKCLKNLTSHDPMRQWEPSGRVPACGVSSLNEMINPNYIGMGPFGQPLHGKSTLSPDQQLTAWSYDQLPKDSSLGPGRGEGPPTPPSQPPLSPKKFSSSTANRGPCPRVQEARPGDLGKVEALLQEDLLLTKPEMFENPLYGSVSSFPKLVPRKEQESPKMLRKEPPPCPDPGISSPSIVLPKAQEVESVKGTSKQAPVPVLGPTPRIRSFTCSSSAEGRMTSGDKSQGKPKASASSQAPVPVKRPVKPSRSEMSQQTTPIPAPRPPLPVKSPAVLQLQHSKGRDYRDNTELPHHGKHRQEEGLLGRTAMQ
Kind of assay: pull-down.

B1: STAT3 (natural protein)
chain: not shown
For B1, the “fold reduction of the interaction with STAT3 against wild-type SHIP1” value came out at 2 fold.
